# The list shows a part of the results.
# B1: FliD (Clostridium difficile) (protein)
# chain: MSSISPVRVTGLSGNFDMEGIIEASMIRDKEKVNKAKQDQQIVKWKQEIYRDIIKESKNLYDKYLNGDSPNSITNKKAYSATRITSSDESIIVAKGSAGAEKINYQFAVSQMAEPAKVTIKLNSSDPIVQQFPPNASGASSLNIGGVNIPISEQDTTSTIVSKINSLCADNDIRASYSEMTGELIISRKQTGSSSDIDLKVIGNDSLAGQIASDNGITFTTDASGTKSAVVYGKNLEADVTDDQGRVTHISKEQNSFKIDNIDYNVNSKGSAKLVSVTDTEEATKNMKAFVDDYNALMDKVYGLVTTKKSKDYPPLTDEQKDDMTTEEIEKWEKKAKEGILRNDDELRAFVEDIQSMFFGDADTIIALRKLGISEHENYNKKGQISFNADTFSKALIDDSDKVYKALAGYSSNYDDKGMFEKLKKIVFEYSGSSASKLTKKAGMENSSSASQNVYSKQIAEQERNISRLVEKMNDKEKRLYAKYSALESLLNKYSSQMNYFSQAQGN
# What was measured:
# Assay in all cases: glycan array binding signal (z-score within array); higher = stronger binding
# Conditions in all cases: glycan notation: IUPAC condensed, linker removed
# [1] = target: Gal(b1-4)GlcNAc(b1-3)Gal(b1-4)GlcNAc(b1-3)Gal(b1-4)GlcNAc(b1-2)Man(a1-3)[Gal(b1-4)GlcNAc(b1-3)Gal(b1-4)GlcNAc(b1-3)Gal(b1-4)GlcNAc(b1-2)Man(a1-6)]Man(b1-4)GlcNAc(b1-4)[Fuc(a1-6)]GlcNAc
# How it was run: (§1)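 The binding signal is a Z-score computed within each array and averaged over linkers. Arrays of the same protein sequence at different concentrations or buffers were also averaged together. Data originate from 3228 arrays in the Consortium for Functional Glycomics database, kept only where the protein sequence was available.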
# [2] = target: Gal(b1-4)GlcNAc(b1-3)Gal(b1-4)GlcNAc(b1-3)Gal(b1-4)GlcNAc(b1-2)[Gal(b1-4)GlcNAc(b1-3)Gal(b1-4)GlcNAc(b1-3)Gal(b1-4)GlcNAc(b1-6)]Man(a1-6)[Gal(b1-4)GlcNAc(b1-3)Gal(b1-4)GlcNAc(b1-3)Gal(b1-4)GlcNAc(b1-2)Man(a1-3)]Man(b1-4)GlcNAc(b1-4)[Fuc(a1-6)]GlcNAc
# How it was run: as §1
# [3] = target: Gal(b1-4)GlcNAc(b1-3)Gal(b1-4)GlcNAc(b1-3)Gal(b1-4)GlcNAc(b1-3)Gal(b1-4)GlcNAc(b1-2)Man(a1-3)[Gal(b1-4)GlcNAc(b1-3)Gal(b1-4)GlcNAc(b1-3)Gal(b1-4)GlcNAc(b1-3)Gal(b1-4)GlcNAc(b1-2)Man(a1-6)]Man(b1-4)GlcNAc(b1-4)GlcNAc
# How it was run: as §1
# [4] = target: Gal(b1-4)GlcNAc(b1-3)Gal(b1-4)GlcNAc(b1-3)Gal(b1-4)GlcNAc(b1-3)Gal(b1-4)GlcNAc(b1-2)Man(a1-3)[Gal(b1-4)GlcNAc(b1-3)Gal(b1-4)GlcNAc(b1-3)Gal(b1-4)GlcNAc(b1-3)Gal(b1-4)GlcNAc(b1-2)Man(a1-6)]Man(b1-4)GlcNAc(b1-4)[Fuc(a1-6)]GlcNAc
# How it was run: as §1
# [5] = target: Gal(b1-4)GlcNAc(b1-3)Gal(b1-4)GlcNAc(b1-3)Gal(b1-4)GlcNAc(b1-3)Gal(b1-4)GlcNAc(b1-2)[Gal(b1-4)GlcNAc(b1-3)Gal(b1-4)GlcNAc(b1-3)Gal(b1-4)GlcNAc(b1-3)Gal(b1-4)GlcNAc(b1-6)]Man(a1-6)[Gal(b1-4)GlcNAc(b1-3)Gal(b1-4)GlcNAc(b1-3)Gal(b1-4)GlcNAc(b1-3)Gal(b1-4)GlcNAc(b1-2)Man(a1-3)]Man(b1-4)GlcNAc(b1-4)[Fuc(a1-6)]GlcNAc
# How it was run: as §1
# [6] = target: Gal(b1-4)GlcNAc(b1-3)Gal(b1-4)GlcNAc(b1-3)Gal(b1-4)GlcNAc(b1-3)Gal(b1-4)GlcNAc(b1-3)Gal(b1-4)GlcNAc(b1-2)Man(a1-3)[Gal(b1-4)GlcNAc(b1-3)Gal(b1-4)GlcNAc(b1-3)Gal(b1-4)GlcNAc(b1-3)Gal(b1-4)GlcNAc(b1-3)Gal(b1-4)GlcNAc(b1-2)Man(a1-6)]Man(b1-4)GlcNAc(b1-4)GlcNAc
# How it was run: as §1
# [7] = target: Gal(b1-4)GlcNAc(b1-3)Gal(b1-4)GlcNAc(b1-3)Gal(b1-4)GlcNAc(b1-3)Gal(b1-4)GlcNAc(b1-3)Gal(b1-4)GlcNAc(b1-2)Man(a1-3)[Gal(b1-4)GlcNAc(b1-3)Gal(b1-4)GlcNAc(b1-3)Gal(b1-4)GlcNAc(b1-3)Gal(b1-4)GlcNAc(b1-3)Gal(b1-4)GlcNAc(b1-2)Man(a1-6)]Man(b1-4)GlcNAc(b1-4)[Fuc(a1-6)]GlcNAc
# How it was run: as §1
# [8] = target: Gal(b1-4)GlcNAc(b1-3)Gal(b1-4)GlcNAc(b1-3)Gal(b1-4)GlcNAc(b1-3)Gal(b1-4)GlcNAc(b1-3)Gal(b1-4)GlcNAc(b1-2)[Gal(b1-4)GlcNAc(b1-3)Gal(b1-4)GlcNAc(b1-3)Gal(b1-4)GlcNAc(b1-3)Gal(b1-4)GlcNAc(b1-3)Gal(b1-4)GlcNAc(b1-6)]Man(a1-6)[Gal(b1-4)GlcNAc(b1-3)Gal(b1-4)GlcNAc(b1-3)Gal(b1-4)GlcNAc(b1-3)Gal(b1-4)GlcNAc(b1-3)Gal(b1-4)GlcNAc(b1-2)Man(a1-3)]Man(b1-4)GlcNAc(b1-4)[Fuc(a1-6)]GlcNAc
# How it was run: as §1
# [9] = target: Gal(b1-4)GlcNAc(b1-3)Gal(b1-4)GlcNAc(b1-3)Gal(b1-4)GlcNAc(b1-3)Gal(b1-4)GlcNAc(b1-3)Gal(b1-4)GlcNAc(b1-3)Gal(b1-4)GlcNAc(b1-2)Man(a1-3)[Gal(b1-4)GlcNAc(b1-3)Gal(b1-4)GlcNAc(b1-3)Gal(b1-4)GlcNAc(b1-3)Gal(b1-4)GlcNAc(b1-3)Gal(b1-4)GlcNAc(b1-3)Gal(b1-4)GlcNAc(b1-2)Man(a1-6)]Man(b1-4)GlcNAc(b1-4)GlcNAc
# How it was run: as §1
# [10] = target: Gal(b1-4)GlcNAc(b1-3)Gal(b1-4)GlcNAc(b1-3)GalNAc
# How it was run: as §1
# [11] = target: Gal(b1-4)GlcNAc(b1-3)Gal(b1-4)GlcNAc(b1-3)[Gal(b1-4)GlcNAc(b1-3)Gal(b1-4)GlcNAc(b1-6)]GalNAc
# How it was run: as §1
# [12] = target: Gal(b1-4)GlcNAc(b1-3)Gal(b1-4)GlcNAc(b1-6)[Gal(b1-3)]GalNAc
# How it was run: as §1
# [13] = target: Gal(b1-4)GlcNAc(b1-3)Gal(b1-4)[Fuc(a1-3)]GlcNAc(b1-3)Gal(b1-4)[Fuc(a1-3)]GlcNAc
# How it was run: as §1
# [14] = target: Gal(b1-4)GlcNAc(b1-3)GalNAc
# How it was run: as §1
# [15] = target: Gal(b1-4)GlcNAc(b1-3)[Fuc(a1-3)GlcNAc(b1-6)]Gal(b1-4)Glc
# How it was run: as §1
# [16] = target: Gal(b1-4)GlcNAc(b1-3)[Gal(b1-4)GlcNAc(b1-6)]Gal(b1-4)GlcNAc
# How it was run: as §1
# [17] = target: Gal(b1-4)GlcNAc(b1-3)[GlcNAc(b1-6)]Gal(b1-4)GlcNAc
# How it was run: as §1
# [18] = target: Gal(b1-4)GlcNAc(b1-6)Gal(b1-4)GlcNAc
# How it was run: as §1
# [19] = target: Gal(b1-4)GlcNAc(b1-6)GalNAc
# How it was run: as §1
binder,measurement,setting,value
B1,glycan array binding signal (z-score),[1],0.119
same,glycan array binding signal (z-score),[2],-0.102
same,glycan array binding signal (z-score),[3],0.305
same,glycan array binding signal (z-score),[4],1.2
same,glycan array binding signal (z-score),[5],-0.166
same,glycan array binding signal (z-score),[6],-0.072
same,glycan array binding signal (z-score),[7],-0.064
same,glycan array binding signal (z-score),[8],0.4
same,glycan array binding signal (z-score),[9],-0.104
same,glycan array binding signal (z-score),[10],0.126
same,glycan array binding signal (z-score),[11],0.086
same,glycan array binding signal (z-score),[12],0.051
same,glycan array binding signal (z-score),[13],-0.166
same,glycan array binding signal (z-score),[14],-0.215
same,glycan array binding signal (z-score),[15],-0.184
same,glycan array binding signal (z-score),[16],0.414
same,glycan array binding signal (z-score),[17],0.021
same,glycan array binding signal (z-score),[18],-0.155
same,glycan array binding signal (z-score),[19],-0.184
